Some of the results follow. Read counts after selection give these values, which scatter widely. Each score is taken over the longer molecules that contain the sequence shown.
Key:
Assay in all cases: 6-mer SELEX enrichment z-score vs GST control; IMP3 is the RNA-binding protein IGF2BP3; higher = more enriched by binding
IMP3 KH1-4 = details: construct: KH1-4 (164-579); SELEX round: R4
Experimental: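 SELEX-seq with GST-tagged IMP3 KH1-4 (Pro164-Lys579) and an N40 RNA pool, round 4. 6-mer z-score of sequence-tag enrichment normalised to the corresponding GST SELEX round; RNA k-mers written as DNA (T for U).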

IMP3 RRM1-2 = details: construct: RRM1-2 (1-163); SELEX round: R2
Chain of IMP3 RRM1-2 (chain, as listed by the source): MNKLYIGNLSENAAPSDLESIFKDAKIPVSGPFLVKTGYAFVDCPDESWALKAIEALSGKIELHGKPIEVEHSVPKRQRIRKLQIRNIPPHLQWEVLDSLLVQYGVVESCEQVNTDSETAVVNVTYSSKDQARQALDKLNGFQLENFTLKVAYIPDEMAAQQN
Experimental: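 SELEX-seq with GST-tagged IMP3 RRM1-2 (Met1-Asn163) and an N40 RNA pool, round 2. 6-mer enrichment z-score normalised to GST SELEX. RNA written as DNA (T = U).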

IMP3 full-length = IMP3 full-length (UniProt O00425); details: construct: FL IMP3 (1-579); SELEX round: R4
Chain of UniProt O00425 (O00425 whole entry): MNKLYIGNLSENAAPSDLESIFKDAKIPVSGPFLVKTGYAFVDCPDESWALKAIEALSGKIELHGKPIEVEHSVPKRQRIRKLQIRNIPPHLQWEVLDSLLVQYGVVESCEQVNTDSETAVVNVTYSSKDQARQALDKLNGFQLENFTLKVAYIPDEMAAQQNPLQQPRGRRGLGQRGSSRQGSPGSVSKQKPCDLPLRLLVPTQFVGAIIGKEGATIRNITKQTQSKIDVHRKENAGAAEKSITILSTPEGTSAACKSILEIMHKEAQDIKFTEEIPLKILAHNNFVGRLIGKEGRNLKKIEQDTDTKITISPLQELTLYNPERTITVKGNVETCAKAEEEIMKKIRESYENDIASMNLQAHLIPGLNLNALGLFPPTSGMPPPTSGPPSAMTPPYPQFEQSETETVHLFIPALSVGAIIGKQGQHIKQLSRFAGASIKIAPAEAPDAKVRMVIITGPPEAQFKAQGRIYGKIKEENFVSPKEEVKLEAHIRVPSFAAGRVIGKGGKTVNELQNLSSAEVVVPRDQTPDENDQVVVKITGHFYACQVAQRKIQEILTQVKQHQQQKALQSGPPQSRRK
Experimental: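 SELEX-seq with GST-tagged full-length IMP3 and an N40 RNA pool, round 4. Each 6-mer is scored as an enrichment z-score of sequence tags containing it, normalised to the matching GST SELEX round. RNA written as DNA (T = U).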

IMP3 KH1-2 = details: construct: KH1-2 (164-376); SELEX round: R4
Chain of IMP3 KH1-2 (chain, as listed by the source): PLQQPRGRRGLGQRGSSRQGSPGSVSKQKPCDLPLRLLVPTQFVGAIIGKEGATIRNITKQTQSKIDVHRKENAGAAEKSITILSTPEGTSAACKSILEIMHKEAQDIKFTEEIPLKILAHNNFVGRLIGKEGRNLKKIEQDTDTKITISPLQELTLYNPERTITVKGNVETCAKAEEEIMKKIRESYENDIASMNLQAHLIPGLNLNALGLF
Experimental: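 SELEX-seq with GST-tagged IMP3 KH1-2 (Pro164-Phe376) and an N40 RNA pool, round 4 (stringent 300/600 mM KCl washes). 6-mer z-score of sequence-tag enrichment normalised to the corresponding GST SELEX round; RNA k-mers written as DNA (T for U).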

IMP3 KH3-4 = details: construct: KH3-4 (377-579); SELEX round: R4
Chain of IMP3 KH3-4 (chain, as listed by the source): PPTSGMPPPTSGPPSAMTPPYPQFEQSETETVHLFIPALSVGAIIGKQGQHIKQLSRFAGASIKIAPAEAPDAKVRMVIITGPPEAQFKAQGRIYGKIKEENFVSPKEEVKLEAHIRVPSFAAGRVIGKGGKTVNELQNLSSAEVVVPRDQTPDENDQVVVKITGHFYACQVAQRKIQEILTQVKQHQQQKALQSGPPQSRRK
Experimental: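 SELEX-seq with GST-tagged IMP3 KH3-4 (Pro377-Lys579) and an N40 RNA pool, round 4. 6-mer z-score of sequence-tag enrichment normalised to the corresponding GST SELEX round; RNA k-mers written as DNA (T for U).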

Chain of IMP3 KH1-4 (chain, as listed by the source): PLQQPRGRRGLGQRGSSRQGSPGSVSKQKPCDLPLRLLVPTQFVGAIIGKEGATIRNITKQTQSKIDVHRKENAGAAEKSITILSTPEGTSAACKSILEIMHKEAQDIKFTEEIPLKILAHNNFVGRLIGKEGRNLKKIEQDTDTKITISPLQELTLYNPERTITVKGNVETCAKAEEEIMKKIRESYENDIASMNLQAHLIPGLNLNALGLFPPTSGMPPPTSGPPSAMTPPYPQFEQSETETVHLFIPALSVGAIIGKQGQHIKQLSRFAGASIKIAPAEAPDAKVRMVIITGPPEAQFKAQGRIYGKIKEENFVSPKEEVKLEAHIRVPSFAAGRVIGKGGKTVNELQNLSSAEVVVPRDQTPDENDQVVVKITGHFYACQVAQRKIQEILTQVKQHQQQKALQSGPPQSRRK

| Sequence | 6-mer SELEX enrichment z-score (IMP3 KH1-4) | 6-mer SELEX enrichment z-score (IMP3 RRM1-2) | 6-mer SELEX enrichment z-score (IMP3 full-length) | 6-mer SELEX enrichment z-score (IMP3 KH1-2) | 6-mer SELEX enrichment z-score (IMP3 KH3-4) |
| --- | --- | --- | --- | --- | --- |
| TCGGAG | -0.218 | 0.041 | 0.202 | -0.228 | -0.114 |
| CATGGA | 0.696 | 0.21 | 0.608 | 0.346 | 0.444 |
| TGCATG | 0.896 | 0.256 | 0.48 | 0.575 | 0.637 |
| TACGCT | 0.344 | 0.046 | 0.04 | 0.338 | 0.264 |
| CCACTC | -0.685 | 0.634 | -0.21 | -0.569 | -1.17 |
| CCACTA | 0.588 | 0.54 | -0.259 | 0.488 | 0.119 |
| AAGGCC | -0.132 | -0.672 | -0.137 | -0.062 | 0.118 |
| ACCTAT | -0.435 | -0.357 | -0.76 | -0.439 | -0.55 |
| TCATAA | 1.37 | 1.36 | 1.53 | 1.6 | 1.44 |
| CGTAGA | -2.15 | -0.6 | -1.13 | -2.01 | -1.96 |
| AGATCT | -0.024 | -0.046 | -0.096 | -0.042 | 0.066 |
| GTATTT | 0.028 | 0.292 | -0.059 | 0.045 | 0.276 |
| ACTATG | 0.881 | -0.105 | -0.123 | 0.628 | 0.951 |
| CAAAGC | -1.6 | -0.33 | -0.819 | -1.57 | -1.73 |
| TCGGTA | 0.039 | 0.458 | 0.312 | 0.037 | 0.133 |
| GAACTT | -0.2 | -0.504 | -0.68 | -0.227 | -0.078 |
| TATTAC | 1.19 | 0.157 | 0.199 | 1.26 | 1.49 |
| GCGAAT | -0.51 | -0.431 | -0.277 | -0.525 | -0.294 |
| CAGTCC | 0.976 | 0.3 | 0.779 | 0.631 | -0.086 |
| TTCCCA | -0.546 | -0.231 | -0.747 | -0.587 | -0.884 |
